Results from the supplement of paper PMC4967469.
IC50 is the fitted dose that halves viability relative to control wells, and lower means more sensitive; fits outside the tested doses are given as limits. AUC, from the same fit, is the share of area under the viability curve across the 256-fold dose range: 1 means no effect, lower means more sensitive. For some assays here: An inferred top dose is not printed in the source and was worked back from the curve model. For some assays here: Drugs with an entry number were screened twice under separate entries, and the two screens often disagree.

What was measured:
Assay in all cases: Viability of human cancer cell lines after 72 h of drug (GDSC screen)
CP466722 = compound: COc1cc2ncnc(-n3nc(-c4ccccn4)nc3N)c2cc1OC [CP466722]; conditions: top dose 16 µM; top dose inferred
Method: (§1)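 Human cancer cell lines in 384-well plates, medium with 10% serum, drug for 72 h over a 256-fold dose range (nine 2-fold or five 4-fold steps up to the top dose). Adherent lines were fixed and stained with the nucleic acid dye Syto60, suspension lines read with resazurin; signal relative to control wells, capped at 0 and 100%. One two-parameter sigmoid per drug and line, fitted in a mixed model over all curves with the slope shared within a line.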

QL-X-138 = compound: C=CC(=O)Nc1cc(-n2c(=O)ccc3cnc4ccc(-c5cn[nH]c5)cc4c32)ccc1C [QL-X-138]; conditions: top dose 10.24 µM; top dose inferred
Method: as §1

KU-55933 = compound: O=c1cc(-c2cccc3c2Sc2ccccc2S3)oc(N2CCOCC2)c1 [KU-55933]; conditions: top dose 10 µM
Method: as §1

ABT-888 = compound: C[C@]1(c2nc3c(C(N)=O)cccc3[nH]2)CCCN1 [ABT-888]; conditions: top dose 5 µM; top dose inferred
Method: as §1

GSK269962A = compound: CCn1c(-c2nonc2N)nc2cnc(Oc3cccc(NC(=O)c4ccc(OCCN5CCOCC5)cc4)c3)cc21 [GSK269962A]; conditions: top dose 5 µM; screen: GDSC drug entry 1192; top dose inferred
Method: as §1

Cytarabine = compound: Nc1ccn([C@@H]2O[C@H](CO)[C@@H](O)[C@@H]2O)c(=O)n1 [Cytarabine]; conditions: top dose 2 µM
Method: as §1

CHIR-99021 = compound: Cc1cnc(-c2cnc(NCCNc3ccc(C#N)cn3)nc2-c2ccc(Cl)cc2Cl)[nH]1 [CHIR-99021]
Method: as §1

ABT-869 = compound: Cc1ccc(F)c(NC(=O)Nc2ccc(-c3cccc4[nH]nc(N)c34)cc2)c1 [ABT-869]; conditions: top dose 1.024 µM; top dose inferred
Method: as §1

(5Z)-7-Oxozeaenol = compound: COc1cc(O)c2c(c1)/C=C/C[C@H](O)[C@H](O)C(=O)/C=C\C[C@H](C)OC2=O [(5Z)-7-Oxozeaenol]; conditions: top dose 10 µM; top dose inferred
Method: as §1

MPS-1-IN-1 = compound: COc1cc(N2CCC(O)CC2)ccc1Nc1cc(Nc2ccccc2S(=O)(=O)C(C)C)c2cc[nH]c2n1 [MPS-1-IN-1]; conditions: top dose 20 µM; top dose inferred
Method: as §1

Zibotentan = compound: COc1nc(C)cnc1NS(=O)(=O)c1cccnc1-c1ccc(-c2nnco2)cc1 [Zibotentan]; conditions: top dose 20 µM; top dose inferred
Method: as §1

[1] = top dose 10 µM, screen: GDSC drug entry 1241, top dose inferred
[2] = top dose 2.56 µM, screen: GDSC drug entry 154

Cell Line	AUC (CP466722)	IC50 (CP466722)	AUC (QL-X-138)	IC50 (QL-X-138)	AUC (KU-55933)	IC50 (KU-55933)	AUC (ABT-888)	IC50 (ABT-888)	AUC (GSK269962A)	IC50 (GSK269962A)	AUC (Cytarabine)	IC50 (Cytarabine)	AUC (CHIR-99021; [1])	IC50 (CHIR-99021; [1])	AUC (ABT-869)	IC50 (ABT-869)	AUC ((5Z)-7-Oxozeaenol)	IC50 ((5Z)-7-Oxozeaenol)	AUC (MPS-1-IN-1)	IC50 (MPS-1-IN-1)	AUC (Zibotentan)	IC50 (Zibotentan)	AUC (CHIR-99021; [2])	IC50 (CHIR-99021; [2])
NCC021 (kidney, adherent)	0.836	13.2 µM	0.789	5.36 µM	0.911	> 10 µM	0.981	> 5 µM	0.953	> 5 µM	0.84	1.72 µM	0.856	> 10 µM	0.971	> 1.02 µM	0.775	4.63 µM	0.963	> 20 µM	0.971	> 20 µM		
NCI-H630 (large intestine, adherent)	0.932	> 16 µM	0.935	> 10.2 µM	0.986	> 10 µM	0.971	> 5 µM	0.956	> 5 µM	0.918	> 2 µM	0.951	> 10 µM	0.986	> 1.02 µM	0.821	6.38 µM	0.837	14.8 µM	0.986	> 20 µM	0.988	> 2.56 µM
OACM5-1 (oesophagus, semi-adherent)	0.622	2.27 µM	0.578	1.08 µM	0.964	> 10 µM	0.985	> 5 µM	0.966	> 5 µM	0.958	> 2 µM	0.973	> 10 µM	0.972	> 1.02 µM	0.89	> 10 µM	0.734	6.37 µM	0.971	> 20 µM		
OACp4C (oesophagus, adherent)	0.721	4.87 µM	0.628	1.55 µM	0.956	> 10 µM	0.979	> 5 µM	0.824	3.8 µM	0.734	0.674 µM	0.971	> 10 µM	0.964	> 1.02 µM	0.808	6.51 µM	0.633	3.14 µM	0.974	> 20 µM		
OC-314 (ovary, adherent)	0.891	14 µM	0.659	1.65 µM	0.954	> 10 µM	0.991	> 5 µM	0.835	2.65 µM	0.851	1.21 µM	0.902	9.84 µM	0.989	> 1.02 µM	0.603	1.14 µM	0.976	> 20 µM	0.99	> 20 µM		
OV-7 (ovary, adherent)	0.709	5.35 µM	0.784	7.02 µM	0.851	> 10 µM	0.923	> 5 µM	0.476	0.26 µM	0.791	1.47 µM	0.828	> 10 µM	0.971	> 1.02 µM	0.627	1.68 µM	0.934	> 20 µM	0.971	> 20 µM		
OV-17R (ovary, adherent)	0.811	13 µM	0.702	3.02 µM	0.934	> 10 µM	0.976	> 5 µM	0.972	> 5 µM	0.701	0.584 µM	0.952	> 10 µM	0.964	> 1.02 µM	0.745	4.28 µM	0.908	> 20 µM	0.973	> 20 µM		
OVCA420 (ovary, adherent)	0.951	> 16 µM	0.964	> 10.2 µM	0.944	> 10 µM	0.982	> 5 µM	0.855	> 5 µM	0.868	> 2 µM	0.979	> 10 µM	0.979	> 1.02 µM	0.853	> 10 µM	0.913	> 20 µM	0.982	> 20 µM		
OVK-18 (ovary, adherent)	0.922	> 16 µM	0.955	> 10.2 µM	0.888	> 10 µM	0.958	> 5 µM	0.87	> 5 µM	0.517	0.14 µM	0.984	> 10 µM	0.983	> 1.02 µM	0.65	1.71 µM	0.957	> 20 µM	0.983	> 20 µM		
PEO1 (ovary, adherent)	0.76	5.84 µM	0.987	> 10.2 µM	0.964	> 10 µM	0.987	> 5 µM	0.851	4.07 µM	0.551	0.174 µM	0.975	> 10 µM	0.982	> 1.02 µM	0.43	0.398 µM	0.914	> 20 µM	0.98	> 20 µM		
QGP-1 (pancreas, adherent)	0.918	> 16 µM	0.723	4.14 µM	0.97	> 10 µM	0.959	> 5 µM	0.903	> 5 µM	0.952	> 2 µM	0.969	> 10 µM	0.972	> 1.02 µM	0.861	> 10 µM	0.829	> 20 µM	0.967	> 20 µM		
RCC-AB (kidney, adherent)	0.721	5.23 µM	0.447	0.44 µM	0.936	> 10 µM	0.979	> 5 µM	0.953	> 5 µM	0.947	> 2 µM	0.912	> 10 µM	0.973	> 1.02 µM	0.556	0.932 µM	0.907	> 20 µM	0.966	> 20 µM		
